# Assay results reported in PubChem BioAssay AID504333 (National Center for Advancing Translational Sciences (NCATS), 2011).
# The campaign covered roughly 360,000 compounds. About 16,000 (4.4%) were called active. The inconclusive results got no clear call from the source; some entries with a clear call stand among them for comparison. The call rests on the fitted dose curve; in most records, active means well fitted inhibition curve with a large enough effect; inconclusive means small, poorly fitted or top-dose-only effect; inactive means no such curve, though single readings can be large or run the other way. A potency beside an inconclusive call is a rough fit, not a confirmed value.
# Target: Bromodomain adjacent to zinc finger domain protein 2B (Homo sapiens) (UniProt Q9UIF8)
# Chain of UniProt Q9UIF8 (Q9UIF8 whole entry, looked up, the tested form may be a part): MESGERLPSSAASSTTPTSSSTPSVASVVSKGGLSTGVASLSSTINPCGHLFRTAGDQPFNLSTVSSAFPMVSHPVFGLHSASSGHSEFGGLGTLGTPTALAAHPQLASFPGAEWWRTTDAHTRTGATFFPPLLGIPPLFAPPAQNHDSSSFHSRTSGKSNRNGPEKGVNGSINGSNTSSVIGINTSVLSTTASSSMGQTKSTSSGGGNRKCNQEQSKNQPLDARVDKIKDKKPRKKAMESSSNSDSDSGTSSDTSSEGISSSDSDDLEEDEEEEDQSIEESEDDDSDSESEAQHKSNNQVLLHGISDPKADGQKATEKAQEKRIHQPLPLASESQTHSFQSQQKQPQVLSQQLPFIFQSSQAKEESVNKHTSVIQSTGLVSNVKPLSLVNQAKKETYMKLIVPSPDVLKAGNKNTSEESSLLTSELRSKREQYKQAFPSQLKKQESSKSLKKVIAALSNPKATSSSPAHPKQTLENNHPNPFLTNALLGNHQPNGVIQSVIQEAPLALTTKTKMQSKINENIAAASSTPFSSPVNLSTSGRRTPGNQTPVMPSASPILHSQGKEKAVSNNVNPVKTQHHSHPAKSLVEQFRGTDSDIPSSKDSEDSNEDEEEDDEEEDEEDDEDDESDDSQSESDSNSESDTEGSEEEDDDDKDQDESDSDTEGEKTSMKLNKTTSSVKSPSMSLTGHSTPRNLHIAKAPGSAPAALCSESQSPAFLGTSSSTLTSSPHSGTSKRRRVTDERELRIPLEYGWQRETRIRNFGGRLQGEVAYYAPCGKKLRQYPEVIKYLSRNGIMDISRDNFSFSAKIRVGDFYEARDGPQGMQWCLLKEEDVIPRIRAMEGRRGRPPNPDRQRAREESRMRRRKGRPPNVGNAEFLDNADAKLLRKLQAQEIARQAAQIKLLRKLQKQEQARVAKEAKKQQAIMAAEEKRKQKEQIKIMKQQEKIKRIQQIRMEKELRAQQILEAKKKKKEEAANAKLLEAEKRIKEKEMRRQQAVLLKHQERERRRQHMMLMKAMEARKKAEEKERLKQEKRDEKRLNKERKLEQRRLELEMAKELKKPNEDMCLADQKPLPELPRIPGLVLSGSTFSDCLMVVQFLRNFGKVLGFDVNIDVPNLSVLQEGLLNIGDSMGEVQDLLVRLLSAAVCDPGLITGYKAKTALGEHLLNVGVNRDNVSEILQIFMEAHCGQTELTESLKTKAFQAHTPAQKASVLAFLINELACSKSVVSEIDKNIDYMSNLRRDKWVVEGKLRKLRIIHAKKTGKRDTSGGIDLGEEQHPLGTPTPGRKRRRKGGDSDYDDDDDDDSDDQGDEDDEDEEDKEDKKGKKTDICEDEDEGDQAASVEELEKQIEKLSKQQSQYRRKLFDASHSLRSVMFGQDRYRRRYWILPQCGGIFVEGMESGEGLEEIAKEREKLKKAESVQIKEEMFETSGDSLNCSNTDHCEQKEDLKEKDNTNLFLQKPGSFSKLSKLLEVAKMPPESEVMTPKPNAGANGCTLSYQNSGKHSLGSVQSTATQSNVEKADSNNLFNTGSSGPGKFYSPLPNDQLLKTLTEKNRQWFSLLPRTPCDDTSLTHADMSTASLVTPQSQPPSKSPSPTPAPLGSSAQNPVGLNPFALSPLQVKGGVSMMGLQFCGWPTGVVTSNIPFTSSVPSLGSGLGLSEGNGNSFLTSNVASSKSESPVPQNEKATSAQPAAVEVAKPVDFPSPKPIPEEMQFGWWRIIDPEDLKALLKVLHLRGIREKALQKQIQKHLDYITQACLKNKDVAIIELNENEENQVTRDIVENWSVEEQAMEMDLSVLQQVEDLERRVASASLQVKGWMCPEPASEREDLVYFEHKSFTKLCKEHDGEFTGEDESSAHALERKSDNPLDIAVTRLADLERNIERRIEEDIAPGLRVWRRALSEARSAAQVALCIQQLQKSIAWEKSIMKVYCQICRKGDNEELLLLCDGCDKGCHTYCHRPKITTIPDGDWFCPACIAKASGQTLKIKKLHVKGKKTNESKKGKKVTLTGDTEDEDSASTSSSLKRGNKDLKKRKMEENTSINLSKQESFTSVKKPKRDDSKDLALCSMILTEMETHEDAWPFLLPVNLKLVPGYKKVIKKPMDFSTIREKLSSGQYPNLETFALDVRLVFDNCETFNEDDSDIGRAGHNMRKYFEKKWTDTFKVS
# Assay: qHTS Assay for Inhibitors of BAZ2B; further: nearly all actives have a fitted effect of over 60% in size
# Settings: AlphaScreen BAZ2B-H3K14Ac peptide displacement; series mostly up to 114 µM
# Summary of the method: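 In this displacement format the biotinylated H3(5-23) peptide acetylated at Lys14 serves as ligand at 50 nM, with BAZ2B at 50 nM in PBS pH 7.4 containing 0.01% Tween-20. Donor and acceptor beads are 10 ug/mL final.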
# Potency means the concentration at half of the fitted maximal effect; tags describe the fitted curve by direction and shape.
row,Structure (SMILES),Potency
1,N/C(=N\N=C/c1ccc(F)cc1)N/N=C\c1ccc(F)cc1,"inconclusive: 50.1 µM [inhibitor, partial curve]"
2,CC(=O)Nc1ccc(-n2c(CCC(=O)O)ccc2-c2ccc(Br)cc2)cc1,"inconclusive: 70.8 µM [inhibitor, single point]"
3,Cc1cc(C)c(S(=O)(=O)Cc2ccccc2)c(=O)[nH]1,inactive
4,Cc1ccc(O)c(N=Nc2ccc(S(=O)(=O)N3CCOCC3)cc2)c1,active: 8.91 µM
5,COc1ccccc1NC(=O)CSc1nnnn1C1CCCC1,"inconclusive: 100 µM [inhibitor, single point]"
6,O=C(N/N=C/c1cc(Cl)ccc1O)c1ccncc1,active: 20 µM
7,O=C(Nc1ccc(CN2CCCCC2)cc1)c1cc(Br)ccc1Cl,"inconclusive: 39.8 µM [inhibitor, single point]"
8,CC1CCCN(C(C(=O)Nc2ccc3c(c2)OCCO3)c2ccccc2)C1 (stereo unspecified),"inconclusive: 100 µM [inhibitor, single point]"
9,COc1ccc(Nc2ccccc2NC(=O)c2ccccc2Br)cc1,"inconclusive: 28.2 µM [inhibitor, full curve]"
10,Nc1c(NCCN2CCOCC2)c2ccccc2oc1=O,"inconclusive: 89.1 µM [inhibitor, single point]"
11,O=C(CNc1cccc2ccccc12)N/N=C/c1ccc[nH]1,inactive
12,COc1cccc(OC)c1C(=O)NC(C)CCc1ccccc1 (stereo unspecified),inactive
13,O=C(OCC(=O)N1CCN(C(=O)c2ccco2)CC1)c1cc(-c2ccccc2)nc2ccccc12,"inconclusive: 70.8 µM [inhibitor, single point]"
14,COC(=O)c1sc2cccc(F)c2c1S(=O)(=O)Nc1ccc(N(C)C)cc1,"inconclusive: 89.1 µM [inhibitor, single point]"
15,O=S(=O)(c1ccc(OCC(O)CNCc2ccco2)c(Cl)c1)N1CCOCC1 (stereo unspecified),"inconclusive: 89.1 µM [inhibitor, single point]"
16,Cc1ccc(CSCC2Nc3ccc(C(=O)N4CCN(c5ccc(F)cc5)CC4)cc3NC2=O)cc1 (stereo unspecified),"inconclusive: 22.4 µM [inhibitor, single point]"
17,COc1ccc(CNCC(=O)Nc2sccc2C#N)cc1,active: 50.1 µM
18,CC(=O)c1ccc(S(=O)(=O)N2CCC3(CC2)CC(=O)c2ccccc2O3)cc1,inactive
19,O=C(O)c1ccc(Nc2nc3ccc(Cl)cc3[nH]2)cc1,"inconclusive: 79.4 µM [inhibitor, single point]"
20,O=C(CN1CC(=O)Oc2ccccc21)OCC(=O)c1cccc(Br)c1,active: 8.91 µM
21,C=C(C)C1CC=C(C)/C(=N\NC(=O)CNc2ccccc2OC)C1 (stereo unspecified),"inconclusive: 39.8 µM [inhibitor, partial curve]"
22,Cc1ccc(C2c3[nH]c4ccccc4c3CCN2C(=O)c2ccccc2Br)cc1 (stereo unspecified),"inconclusive: 25.1 µM [inhibitor, full curve]"
23,CC1CCCN(C2=C(NS(=O)(=O)c3ccc(Cl)cc3)C(=O)c3ccccc3C2=O)C1 (stereo unspecified),active: 5.01 µM

row,Structure (SMILES),Potency
1,COc1ccc(COC(=O)C2CCN(C(=O)c3ccc(Cl)cc3)CC2)cc1F,inactive
2,COc1cccc(/C=C2/SC(=S)N(CCC(=O)N3CCOCC3)C2=O)c1,inactive
3,O=C(CSc1cccc[n+]1[O-])Nc1cc2c(cc1Cl)C(=O)c1ccccc1C2=O,"inconclusive: 70.8 µM [inhibitor, single point]"
4,COc1ccc2[nH]c3c(N4CCc5ccccc5C4)ncnc3c2c1,"inconclusive: 39.8 µM [inhibitor, full curve]"
5,CCCOc1ccc(/C(O)=C2/C(=O)C(=O)N(CCN(C)C)C2c2ccc(OC)c(OC)c2)cc1 (stereo unspecified),active: 79.4 µM
6,CCCCOC(=O)/C(C#N)=C/c1ccc(-c2cccc(C(F)(F)F)c2)o1,inactive
7,O=C(Nc1cccnc1)C1CCC(CNS(=O)(=O)c2cccc3nsnc23)CC1 (stereo unspecified),"inconclusive: 39.8 µM [inhibitor, single point]"
8,O=C(O)c1ccc(NC2=C(Cl)C(=O)c3ccccc3C2=O)cc1,active: 50.1 µM
9,CCOC(=O)[C@H]1[C@H]2COc3ccc(Cl)cc3[C@@H]2N2C(=O)CN(CC3CCCO3)C(=O)[C@@]12C (stereo partly specified),inactive
10,COc1cc(CNc2ccc(N3CCN(C(C)=O)CC3)cc2)ccc1OCc1ccc(F)cc1,active: 22.4 µM
11,COCCCNCCOCCOc1ccc(C)cc1Br,"inconclusive: 89.1 µM [inhibitor, single point]"
12,O=C(O)C1Nc2c(O)cc(Cl)c([N+](=O)[O-])c2C2C=CCC12 (stereo unspecified),active: 1.41 µM
13,CCCN(CCC)S(=O)(=O)c1ccc(C(=O)Nc2ccc(S(=O)(=O)Nc3nnc(CC)s3)cc2)cc1,"inconclusive: 79.4 µM [inhibitor, partial curve]"
14,CC1CCC(NC(=O)CCc2cn(Cc3ccccc3Cl)c3ccccc23)CC1 (stereo unspecified),"inconclusive: 79.4 µM [inhibitor, single point]"
15,CCc1nc2sc3c(c2c(=O)n1CCO)CCC3,inactive
16,CCOC(=O)c1cnc(-n2nc(C)cc2C)nc1NNc1ncc(-c2ccccc2)cn1,"inconclusive: 50.1 µM [inhibitor, partial curve, poor fit]"
17,COc1cccc2sc3ccc(NCCC4CCCN4C)cc3c(=O)c12 (stereo unspecified),"inconclusive: 89.1 µM [inhibitor, single point]"
18,COc1ccccc1CNC(=O)CCc1nnc2ccc(NCCCN3CCCC3=O)nn12,inactive
19,COc1ccccc1NC(=O)COC(=O)c1ccc([N+](=O)[O-])s1,"inconclusive: 39.8 µM [inhibitor, partial curve]"
20,CC(C)OC(=O)Nc1ccc2c(c1)N(C(=O)CCN1CCOCC1)c1ccccc1CC2,"inconclusive: 89.1 µM [inhibitor, single point]"
21,COc1ccc(C(=O)C2CCCN(Cc3cccn3-c3ccc(Cl)cn3)C2)c(OC)c1 (stereo unspecified),active: 56.2 µM
22,COc1ccc(CC(=O)NCCc2sc3nc(-c4ccc(OC)cc4)nn3c2C)cc1,inactive
23,CC(C)=NNc1nc2c(c(=O)n(C)c(=O)n2C)n1C,"inconclusive: 89.1 µM [inhibitor, single point]"
